Results published in PubChem BioAssay AID504832 (National Center for Advancing Translational Sciences (NCATS), 2011).
Screen size: about 310,000 compounds; about 18,000 (5.8%) were called active. The shares of active, inactive and inconclusive entries below differ from those in the screen. The call rests on the fitted dose curve; in most records, active means well fitted inhibition curve with a large enough effect; inconclusive means small, poorly fitted or top-dose-only effect, or another doubt; inactive means no such curve, though single readings can be large or run the other way. No potency is given beside an inconclusive call; the fits are too rough.

Test: Primary qHTS for delayed death inhibitors of the malarial parasite plastid, 48 hour incubation
Conditions: P. falciparum luciferase growth in erythrocytes; series mostly up to 28.7 µM
Procedure, shortened: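 Luminescence readout; reporter = integrated firefly luciferase in P. falciparum. RBC culture at 2% hematocrit, 0.1% parasitemia final, 37 C/5% CO2; decreased signal taken as growth inhibition.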
Potency means the concentration at half of the fitted maximal effect; tags describe the fitted curve by direction and shape.

Row | Compound | Potency
1 | COCc1cc(C)n(CC(=O)Nc2cc(C)cc(C)c2)c(=O)c1C#N | inactive
2 | CC(C)(C)NC(=O)Cn1c(SCC(=O)NC2CCCCC2)nc2ccccc21 | inconclusive [inhibitor, partial curve]
3 | O=C(Cc1ccc(Cl)cc1)Nc1cccc(-c2nnc(-c3ccco3)o2)c1 | inconclusive [inhibitor, partial curve]
4 | COc1ccc(CCCc2nnc(SCC(=O)N/N=C\c3ccc(O)c(OC)c3)o2)cc1C | inconclusive [inhibitor, single point]
5 | COc1cc(/C=C(/C#N)C(=O)Nc2ccc(C)cc2)ccc1Oc1nc(Cl)ncc1F | inactive
6 | Cc1ccc(CN2CC34C=CC(O3)C(C(=O)NCc3ccc5c(c3)OCO5)C4C2=O)cc1 (stereo not drawn) | inconclusive [inhibitor, single point]
7 | c1ccc(CNc2nc(N3CCN(Cc4ccccc4)CC3)nc3ccccc23)cc1 | active: 5.22 µM
8 | O=C1C2CCCN2C(c2ccccc2)N1c1nccs1 (stereo not drawn) | inconclusive [inhibitor, full curve]
9 | CCC12C=CCN3CCC4(c5cc(Br)c(OC)cc5N(C)C4C(O)(C(=O)OC)C1OC(C)=O)C32 (stereo not drawn) | inconclusive [inhibitor, single point]
10 | COc1cccc2c1OCC/C2=N\NC(=O)COc1ccc(C)cc1 | inactive
11 | O=C(/C=C/c1ccc(Cl)cc1Cl)Nc1cccc(S(=O)(=O)NC2=NCCC2)c1 | inactive
12 | Cc1noc(C)c1C(=O)Nc1cc(S(=O)(=O)N2CCCCC2)ccc1N(C)C | inconclusive [inhibitor, single point]
13 | COc1cccc(CN(C)C(=O)CSCC(=O)Nc2cc(C)on2)c1OC | inconclusive [inhibitor, full curve, poor fit]
14 | CCCN(CCC)CCCNC(=O)Cn1cnc2sc(C)c(S(=O)(=O)N3CCCCC3)c2c1=O | inconclusive [inhibitor, single point]
15 | O=C(O)CSCCCC(=O)Nc1ccc(Br)cc1 | inconclusive [inhibitor, partial curve, poor fit]
16 | O=C(Nc1nc(-c2cccs2)cs1)c1ccc([N+](=O)[O-])o1 | inconclusive [inhibitor, single point]
17 | C[C@H](NC(=O)c1cc2c([nH]c3ccccc32)c(-c2ccccc2)n1)C(=O)O | inconclusive [inhibitor, single point]
18 | COc1ccccc1-n1c(N)cc(=O)nc1SCC(=O)Nc1cc(C)on1 | inconclusive [inhibitor, partial curve, poor fit]
